The assay concerns the target T1, P185 BCR-ABL (wild type) (human, UniProt P11274 1-426; P00519 27-1130, tyrosine-phosphorylated: BCR first exon sequences are phosphorylated on tyrosine by the ABL kinase; phosphorylated tyrosine 177).
T1 construct: Chimeric kinase; cDNA per McLaughlin et al. 1989; Expressed in Sf9 insect cells (baculovirus), COS cells, Rat1 fibroblasts, and native in ALL-1 cells; also called P185 wild type; BCR-ABL tyrosine kinase
Kind of assay: GST pull-down from 35S-labelled Sf9 lysates.

T1 sequence (P11274 other isoform, or with tags, fused parts or gaps limits assumed): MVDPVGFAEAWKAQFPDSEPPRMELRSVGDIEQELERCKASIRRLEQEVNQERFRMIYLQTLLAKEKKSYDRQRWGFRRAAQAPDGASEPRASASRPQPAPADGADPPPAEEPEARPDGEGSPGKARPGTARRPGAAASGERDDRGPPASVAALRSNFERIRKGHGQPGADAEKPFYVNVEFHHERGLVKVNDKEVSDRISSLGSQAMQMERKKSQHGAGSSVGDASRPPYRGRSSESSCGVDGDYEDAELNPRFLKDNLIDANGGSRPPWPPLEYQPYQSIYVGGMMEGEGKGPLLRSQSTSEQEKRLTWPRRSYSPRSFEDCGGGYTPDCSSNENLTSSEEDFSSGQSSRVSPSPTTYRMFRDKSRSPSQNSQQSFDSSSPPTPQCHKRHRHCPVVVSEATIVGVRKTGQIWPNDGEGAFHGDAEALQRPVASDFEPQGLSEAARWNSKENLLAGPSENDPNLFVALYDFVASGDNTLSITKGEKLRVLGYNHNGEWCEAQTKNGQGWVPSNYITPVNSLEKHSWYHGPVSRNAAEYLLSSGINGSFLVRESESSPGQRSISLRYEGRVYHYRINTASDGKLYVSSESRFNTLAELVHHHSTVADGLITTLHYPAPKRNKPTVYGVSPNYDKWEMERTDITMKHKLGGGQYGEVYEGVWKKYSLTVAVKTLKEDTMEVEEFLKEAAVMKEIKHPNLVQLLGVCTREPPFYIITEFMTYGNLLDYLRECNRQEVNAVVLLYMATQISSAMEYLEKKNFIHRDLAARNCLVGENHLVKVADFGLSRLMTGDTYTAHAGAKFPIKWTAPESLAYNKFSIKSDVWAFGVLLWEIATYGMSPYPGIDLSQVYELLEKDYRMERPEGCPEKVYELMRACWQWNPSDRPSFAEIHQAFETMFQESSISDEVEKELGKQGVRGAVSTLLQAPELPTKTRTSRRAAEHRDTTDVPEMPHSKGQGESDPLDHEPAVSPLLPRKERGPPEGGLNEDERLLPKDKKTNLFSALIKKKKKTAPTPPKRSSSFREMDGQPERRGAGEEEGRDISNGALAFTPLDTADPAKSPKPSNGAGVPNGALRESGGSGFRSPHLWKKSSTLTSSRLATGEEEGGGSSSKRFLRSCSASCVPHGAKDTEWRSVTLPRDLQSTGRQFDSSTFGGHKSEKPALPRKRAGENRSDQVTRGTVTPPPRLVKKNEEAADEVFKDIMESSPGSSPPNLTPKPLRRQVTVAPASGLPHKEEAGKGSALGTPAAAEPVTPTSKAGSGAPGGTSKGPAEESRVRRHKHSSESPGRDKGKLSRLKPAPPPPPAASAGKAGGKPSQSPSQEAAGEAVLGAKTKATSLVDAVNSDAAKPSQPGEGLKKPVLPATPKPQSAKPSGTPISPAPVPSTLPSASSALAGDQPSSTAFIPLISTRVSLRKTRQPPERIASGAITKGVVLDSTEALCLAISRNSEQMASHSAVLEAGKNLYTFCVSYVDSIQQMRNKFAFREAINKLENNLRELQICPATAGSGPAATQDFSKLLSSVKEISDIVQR

B1: GST alone (other)
chain: not shown
notes: Control for the GST fusion pull-downs; also called glutathione S-transferase
As for B1, the binding result was “no binding”.

The values above are taken from patent US6528270 (SUGEN, dated 2003).
